Structures can show the parent of a compound that is named as a salt. ± gives the standard deviation of the averaged measurements. Whole data set: some 2,000 compounds, median “relative cell viability vs DMSO, compound alone” near 1.1, cut for the lowest 2% near 0.29. Some of the results follow.
The compounds below were run on TE10 (assay: relative cell viability vs DMSO, compound alone (fraction); TE10 is an esophageal squamous carcinoma line; higher = less cytotoxic). Settings: 2 µM; 48 h.
Description: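 TE10 ESCC cells (1,000/well, 384-well plates) were treated with Selleck bioactive library compounds at 2 uM alone for 48 h. Viability was read by CellTiter-Glo and expressed relative to DMSO wells. Two technical replicates (A, B).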

Structure (SMILES) | relative cell viability
COc1cc(Cc2cnc(N)nc2N)cc(OC)c1OC [Trimethoprim] | 1.07 ± 0.067
COc1cc2c(cc1OC)CN(CCc1ccc(NC(=O)c3cc(OC)c(OC)cc3NC(=O)c3cnc4ccccc4c3)cc1)CC2 [Tariquidar] | 1.14 ± 0.047
C=CC(=O)N1CC(=Cc2ccc([N+](=O)[O-])cc2)C(=O)C(=Cc2ccc([N+](=O)[O-])cc2)C1 | 0.0554 ± 0.0028
O=C(Nc1ccccc1)c1ccccc1O [Salicylanilide] | 1.07 ± 0.059
CC(=O)c1cc([N+](=O)[O-])c(Sc2cccc(Cl)c2Cl)s1 | 1.039 ± 0.0072
Cn1c(=O)c2[nH]cnc2n(C)c1=O [Aminophylline] | 0.839 ± 0.017
CS(=O)(=O)c1ccc(C2=C(c3ccccc3)C(=O)OC2)cc1 [Rofecoxib] | 1.15 ± 0.038
Cc1[nH]c(=O)c(C#N)cc1-c1ccncc1 [Milrinone] | 1.11 ± 0.034
CC(C)[C@H](CO)Nc1nc(Nc2cccc(Cl)c2)c2ncn(C(C)C)c2n1 [Purvalanol A] | 1.01 ± 0.056
CN(C)CCC=C1c2ccccc2CCc2ccccc21 [Amitriptyline HCl] | 1.022 ± 0.0078
Cc1ccnc2c1NC(=O)c1cccnc1N2C1CC1 [Nevirapine] | 1.137 ± 0.0096
N=C(N)N [Guanidine HCl] | 1.12 ± 0.073
Cc1c(C(N)=O)cc([N+](=O)[O-])cc1[N+](=O)[O-] [Dinitolmide] | 1.0978 ± 0.00018
CCc1nc(-c2cccc(C)c2)c(-c2ccnc(NC(=O)c3ccccc3)c2)s1 | 1.0779 ± 0.0008
Cc1cccc(C)c1NC(=O)C1CCCCN1C (stereo not drawn) [Mepivacaine HCl] | 1.15 ± 0.032
Cc1ncc([N+](=O)[O-])n1CC(O)CCl (stereo not drawn) [Ornidazole] | 0.985 ± 0.1
CN1C(C(=O)Nc2ccccn2)=C(O)c2sccc2S1(=O)=O [Tenoxicam] | 0.957 ± 0.016
N#Cc1ccc2[nH]cc(CCCCN3CCN(c4ccc5oc(C(N)=O)cc5c4)CC3)c2c1 [Vilazodone HCl] | 1.23 ± 0.047
COc1cc(C(=O)NS(=O)(=O)c2ccccc2C)ccc1Cc1cn(C)c2ccc(NC(=O)OC3CCCC3)cc12 [Zafirlukast] | 1.03 ± 0.033
CN[C@H]1CN(c2ccc3c(=O)c(C(=O)O)cn(-c4nccs4)c3n2)C[C@@H]1OC [Voreloxin (SNS-595)] | 0.88 ± 0.017
CC1=C(C(=O)OC(C)C)C(c2cccc([N+](=O)[O-])c2)C(C(=O)OC2CN(C(c3ccccc3)c3ccccc3)C2)=C(N)N1 (stereo not drawn) [Azelnidipine] | 1.06 ± 0.012
Cc1cc(C2CCCCC2)n(O)c(=O)c1 [Ciclopirox] | 0.775 ± 0.0096
Cc1cc(C2CCCCC2)n(O)c(=O)c1 [Ciclopirox ethanolamine] | 0.785 ± 0.02
CCc1cncnc1N1CCN(Cc2nc3ccc(C(F)(F)F)cc3[nH]2)CC1 | 1.01 ± 0.013
O=C(O)c1cc(=O)c2ccccc2o1 [Chromocarb] | 1.01 ± 0.033
CCOc1cc([C@@H](CS(C)(=O)=O)N2C(=O)c3cccc(NC(C)=O)c3C2=O)ccc1OC | 0.887 ± 0.18

Structure (SMILES) | relative cell viability
CCOC(=O)[C@H](CCc1ccccc1)N[C@@H](C)C(=O)N1[C@H](C(=O)O)C[C@@H]2CCC[C@@H]21 [Ramipril] | 1.02 ± 0.071
NC(=O)c1ncn([C@@H]2O[C@H](CO)[C@@H](O)[C@H]2O)n1 [Ribavirin] | 1.165 ± 0.011
Cc1ccc(S(=O)(=O)n2c(N)nc3ccccc32)cc1 [ML130 (Nodinitib-1)] | 0.949 ± 0.053
NCC(=O)Nc1ccc(-n2nc(C(F)(F)F)cc2-c2ccc3c(ccc4ccccc43)c2)cc1 | 0.844 ± 0.057
COc1ccc(-c2nc3cc(C4=NNC(=O)CC4C)ccc3[nH]2)cc1 (stereo not drawn) [Pimobendan] | 0.876 ± 0.019
O=c1c(O)c(-c2ccc(O)c(O)c2)oc2cc(O)ccc12 [Fisetin] | 1 ± 0.033
COc1cc2ncnc(Oc3cccc(NC(=O)Nc4cc(C(C)(C)C(F)(F)F)on4)c3)c2cc1OC | 1.07 ± 0.013
COc1ccc(-c2cnc3c(-c4cccc5ncccc45)cnn3c2)cc1 | 1.171 ± 0.0012
NS(=O)(=O)c1cc2c(cc1Cl)N=CNS2(=O)=O [Chlorothiazide] | 1.01 ± 0.015
CC[C@H]1OC(=O)[C@H](C)[C@@H](O[C@H]2C[C@@](C)(OC)[C@@H](O)[C@H](C)O2)[C@H](C)[C@@H](O[C@@H]2O[C@H](C)C[C@H](N(C)C)[C@H]2O)[C@](C)(OC)C[C@@H](C)C(=O)[C@H](C)[C@@H](O)[C@]1(C)O [Clarithromycin] | 1.06 ± 0.047
O=[N+]([O-])c1ccc2c(c1)S(=O)(=O)C=C2 [Stattic] | 0.43 ± 0.0062
CCCCCCCCC/C(=C\C1=C(C)C(=O)C(OC)=C(OC)C1=O)C(=O)O | 1.06 ± 0.033
CN(C)CC[C@H](CSc1ccccc1)Nc1ccc(S(=O)(=O)NC(=O)c2ccc(N3CCN(Cc4ccccc4-c4ccc(Cl)cc4)CC3)cc2)cc1[N+](=O)[O-] | 0.73 ± 0.026
C[C@H]1COC2=C1C(=O)C(=O)c1c2ccc2c1CCCC2(C)C [Cryptotanshinone] | 0.747 ± 0.008
NC(=O)Cc1cccc(C(=O)c2ccccc2)c1N [Nepafenac] | 1.2255 ± 0.00018
CC(C)C[C@@H]1NC(=O)[C@@H](C(C)C)NC(=O)[C@@H]2CCCN2C(=O)[C@@H](CC(=O)O)NC(=O)[C@@H](Cc2c[nH]c3ccccc23)NC1=O | 1.093 ± 0.0096
CN(C)C(=O)COC(=O)Cc1ccc(OC(=O)c2ccc(NC(=N)N)cc2)cc1 [Camostat Mesilate] | 1.05 ± 0.023
N=C(N)NC(=O)c1nc(Cl)c(N)nc1N [Amiloride HCl] | 1.05 ± 0.021
N=C(N)NC(=O)c1nc(Cl)c(N)nc1N [Amiloride hydrochloride dihydrate] | 1.15 ± 0.064
Nc1ccccc1NC(=O)c1ccc(CNC(=O)OCc2cccnc2)cc1 [Entinostat (MS-275)] | 0.71 ± 0.038
CCCCOc1c(C(=O)c2c(F)cc(C)cc2F)c[nH]c2nncc1-2 | 0.904 ± 0.014
CCC(=O)Nc1cccc(Oc2nc(Nc3ccc(N4CCN(C)CC4)cc3OC)ncc2Cl)c1 | 1.16 ± 0.059
N#Cc1c(NC(=O)c2cccc3ccccc23)sc2c1CCCC2 [JNK Inhibitor IX] | 1 ± 0.006
C=CC(=O)Nc1cccc(Nc2nc(Nc3ccc(OCCOC)cc3)ncc2F)c1 | 0.919 ± 0.031
CCc1c(Cl)c(O)c(Cl)c(O)c1C(=O)O[C@H]1[C@H](O)[C@H](OC)[C@H](OC/C2=C\C=C\C[C@H](O)/C(C)=C/[C@H](CC)[C@@H](O[C@@H]3OC(C)(C)[C@@H](OC(=O)C(C)C)[C@H](O)[C@@H]3O)/C(C)=C/C(C)=C/C[C@@H]([C@@H](C)O)OC2=O)O[C@@H]1C [Fidaxomicin] | 1.05 ± 0.029
Nc1ccn([C@@H]2CS[C@H](CO)O2)c(=O)n1 [Lamivudine] | 0.944 ± 0.053

Structure (SMILES) | relative cell viability
O=C1NCCCc2c1oc1ccc(O)cc21 | 1.01 ± 0.085
COc1ccccc1OCC(O)COC(N)=O (stereo not drawn) [Methocarbamol] | 1.11 ± 0.02
COC(=O)Nc1nc2cc([S+]([O-])c3ccccc3)ccc2[nH]1 (stereo not drawn) [Oxfendazole] | 0.913 ± 0.023
OC[C@@H](O)[C@@H](O)[C@@H](O)CO [Ribitol] | 1.126 ± 0.0056
O=C(Nc1ccccc1)Nc1ccc(-c2ccc(C(=O)[C@@H]3CCC[C@H]3C(=O)O)cc2)cc1 | 0.994 ± 0.026
CN(C)C/C=C/C(=O)Nc1cc2c(Nc3ccc(F)c(Cl)c3)ncnc2cc1O[C@H]1CCOC1 [Afatinib (BIBW2992) Dimaleate] | 0.976 ± 0.014
CN(C)C/C=C/C(=O)Nc1cc2c(Nc3ccc(F)c(Cl)c3)ncnc2cc1O[C@H]1CCOC1 [Afatinib (BIBW2992)] | 0.915 ± 0.048
O=C1NC(=O)C(c2ccccc2)(c2ccccc2)N1 [Phenytoin] | 1 ± 0.037
CC(C)(O)c1ccccc1CC[C@@H](SCC1(CC(=O)O)CC1)c1cccc(/C=C/c2ccc3ccc(Cl)cc3n2)c1 [Montelukast Sodium] | 1.06 ± 0.072
O=C1NC(=O)C(=Cc2ccc(-c3ccc(F)cc3)o2)S1 (stereo in doubt) | 0.983 ± 0.019
C#CCC(Cc1cnc2nc(N)nc(N)c2n1)c1ccc(C(=O)N[C@@H](CCC(=O)O)C(=O)O)cc1 (stereo partly drawn) [Pralatrexate] | 0.1336 ± 0.00088
O=C(C[S+]([O-])Cc1ccco1)NC/C=C\COc1cc(CN2CCCCC2)ccn1 (stereo not drawn) [Lafutidine] | 1.07 ± 0.045
CCN(CC)CCCC(C)Nc1nc(C)cc(Nc2ccc3nc(C)cc(N)c3c2)n1 (stereo not drawn) | 1.11 ± 0.024
O=C(c1ccccc1)c1ccc2n1CCC2C(=O)O (stereo not drawn) [Ketorolac] | 1.078 ± 0.0035
COc1ccc(S(=O)(=O)N(CCO)c2ccccc2CN(C)C/C=C/c2ccc(Cl)cc2)cc1 [KN-93 Phosphate] | 0.984 ± 0.051
O=C(Nc1ccccc1Br)N[C@@H]1CCN(c2ccc(C(F)(F)F)cn2)C1 | 1.02 ± 0.034
O=C(NOCC(O)CO)c1cc(Br)c(F)c(F)c1Nc1ccc(I)cc1F (stereo not drawn) | 0.843 ± 0.018
CN(C)CC(c1ccc(O)cc1)C1(O)CCCCC1 (stereo not drawn) [Desvenlafaxine Succinate] | 1.05 ± 0.038
CN(C)CC(c1ccc(O)cc1)C1(O)CCCCC1 (stereo not drawn) [Desvenlafaxine] | 1.115 ± 0.0085
CN(C)Cc1ccc(S(=O)(=O)n2ccc(/C=C/C(=O)NO)c2)cc1 [Resminostat] | 0.908 ± 0.028
Nc1ncnc2n[nH]c(Nc3ccc(F)cc3)c12 | 1.12 ± 0.026
CCn1cc(NC(=S)Nc2cc(Cl)ccc2OC)c(C(N)=O)n1 | 1.19 ± 0.041
CC[C@H](C)C[C@H](C)CCCCCCCCC(=O)N[C@H]1C[C@@H](O)[C@@H](NCCN)NC(=O)[C@@H]2[C@@H](O)CCN2C(=O)[C@H]([C@H](O)CCN)NC(=O)[C@H]([C@H](O)[C@@H](O)c2ccc(O)cc2)NC(=O)[C@@H]2C[C@@H](O)CN2C(=O)[C@H]([C@@H](C)O)NC1=O [Caspofungin Acetate] | 1.1 ± 0.037
c1ccc(CN(CC2=NCCN2)c2ccccc2)cc1 [Antazoline HCl] | 1.05 ± 0.012
CN(C)CC/C=C1/c2ccccc2COc2ccc(CC(=O)O)cc21 [Olopatadine HCl] | 1.11 ± 0.081
Cc1cc(OCc2nnc(SC3CCCC3)n2-c2cccnc2)ccc1-c1ccc(S(C)(=O)=O)cc1 | 1.11 ± 0.061
